This is one part of the list.
Tested on: HSkMC (human skeletal muscle cells)
Assay: cytotoxicity call (relative viability < 0.9)
Conditions: 10 µM

Compound | cytotoxicity call
CCCn1c(=O)[nH]c2nc(-c3ccc(S(=O)(=O)N4CCN(c5ccc(Cl)cc5)CC4)cc3)[nH]c2c1=O | active
Cc1ccc(S(=O)(=O)Nc2cccc3c2O[C@@H](CN(C)Cc2ccc(-c4ccccc4)cc2)[C@H](C)CN([C@H](C)CO)C3=O)cc1 | inactive
Cc1noc(C)c1NC(=O)N[C@H]1C=C[C@@H](CC(=O)NCCCN(C)C)O[C@H]1CO | inactive
CC(=O)c1cc2c(cc1O)OC(C)(C)C=C2 | inactive
C[C@H]1CN([C@@H](C)CO)C(=O)c2cc(C#Cc3ccc(F)cc3)cnc2O[C@H]1CN(C)Cc1ccccn1 | inactive
CN(C)CCCNC(=O)C[C@@H]1CC[C@@H]2[C@H](COc3ccc(NC(=O)c4ccccc4F)cc3C(=O)N2C)O1 | inactive
CS(=O)(=O)N1CCCn2c(nnc2Cn2cccn2)C1 | inactive
C[C@@H]1CN([C@H](C)CO)C(=O)c2cc(-c3cccnc3)cnc2O[C@@H]1CN(C)Cc1ccc(-c2ccccc2)cc1 | inactive
COc1ccc(-c2oc3cc(O[C@@H]4O[C@@H](C)[C@H](O)[C@@H](O)[C@H]4O)cc(O)c3c(=O)c2O[C@@H]2O[C@H](CO)[C@@H](O)[C@H](O)[C@H]2O)cc1 | inactive
COc1ccccc1C#Cc1ccc2c(c1)O[C@@H](CN(C)Cc1ccncc1)[C@@H](C)CN([C@@H](C)CO)S2(=O)=O | inactive
Cl.OC(CCN1CCCCC1)(c1ccccc1)C1CCCCC1 (stereo unspecified) | inactive
O=C(C[C@@H]1CC[C@H]2[C@@H](COC[C@@H](O)CN2S(=O)(=O)c2ccccc2)O1)N1CCc2ccccc2C1 | inactive
O=C1N[C@H](Cc2c[nH]c3ccccc23)COC(=O)[C@@H](Cc2ccc(F)cc2)CCC=CC[C@@H]1CC(=O)N(CCO)Cc1ccccc1 | inactive
Cc1noc(C)c1NC(=O)Nc1ccc2c(c1)C(=O)N([C@H](C)CO)C[C@@H](C)[C@H](CN(C)S(=O)(=O)c1ccc(F)cc1)OCCCC[C@@H](C)O2 | inactive
COc1ccc(S(=O)(=O)N(C)C[C@H]2Oc3ccc(NC(=O)c4ccncc4)cc3C(=O)N([C@@H](C)CO)C[C@@H]2C)cc1 | inactive
C[C@@H]1CN([C@H](C)CO)C(=O)c2cc(NC(=O)Nc3cccc4ccccc34)ccc2O[C@@H]1CN(C)S(=O)(=O)c1ccc(F)cc1 | inactive

Compound | cytotoxicity call
COc1ccccc1C(=O)Nc1ccc2c(c1)C(=O)N(C)[C@@H]1CC[C@H](CC(=O)NCCc3ccncc3)O[C@@H]1CO2 | inactive
COC(=O)[C@H](Cc1ccccc1)N1CC2=CC(=O)[C@H](C3CC3)[C@H]2[C@@H]1[C@@H](O)CCn1cc(-c2cccc(/C=C/C(=O)NO)c2)nn1 | inactive
O=C(O)Cn1cccn1 | inactive
CS(=O)(=O)N1C[C@H]2CN(Cc3ccncc3)C(=O)[C@@H]2C1 | inactive
Cc1ccc(S(=O)(=O)Nc2ccc3c(c2)C(=O)N([C@H](C)CO)C[C@H](C)[C@H](CN(C)Cc2ccc4c(c2)OCO4)OCCCC[C@@H](C)O3)cc1 | inactive
Cc1ccc(S(=O)(=O)Nc2ccc3c(c2)CC(=O)N([C@H](C)CO)C[C@H](C)[C@H](CN(C)S(=O)(=O)c2ccccc2)O3)cc1 | inactive
CC(C)NC(=O)N(C)C[C@H]1Oc2c(NS(=O)(=O)c3ccc(F)cc3)cccc2C(=O)N([C@H](C)CO)C[C@H]1C | inactive
C[C@@H]1CN([C@H](C)CO)C(=O)c2cc(C#Cc3cccc(F)c3)cnc2O[C@@H]1CN(C)CC1CCOCC1 | inactive
CC(=O)N1CCCC(=O)CC1 | inactive
COc1ccc(S(=O)(=O)Nc2ccc3c(c2)C(=O)N([C@@H](C)CO)C[C@H](C)[C@@H](CN(C)Cc2ccc(C(F)(F)F)cc2)OCCCC[C@H](C)O3)cc1 | inactive
CNC[C@@H]1OCCCC[C@@H](C)Oc2ccc(NC(=O)CCCN(C)C)cc2C(=O)N([C@H](C)CO)C[C@H]1C | inactive
COC[C@@H](O)CNc1ncnc2c1CCNCC2 | inactive
C[C@H](CO)N1C[C@H](C)[C@@H](CN(C)S(=O)(=O)c2ccc(Cl)cc2)Oc2ccc(NC(=O)CCCN(C)C)cc2CC1=O | inactive
C=CCN1C(=O)[C@@]2(O[C@@H](CCn3cc(CCO)nn3)[C@H]([Si](C)(C)c3ccc(OC)cc3)[C@H]2C)c2cc(N3CCC3=O)ccc21 | inactive
CN(C)CCCNC(=O)C[C@H]1C=C[C@H](NS(=O)(=O)c2ccccc2)[C@H](CO)O1 | inactive
